According to PubChem BioAssay AID1346428 (National Center for Advancing Translational Sciences (NCATS), 2018):
The campaign covered roughly 48,000 compounds. About 1,200 (2.5%) were called active. Not shown: some 2% with an inconclusive outcome.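 Rule for the calls: active = activation of at least 60% and not above a set upper limit (about 1 call in 100 departs from these limits); inconclusive = activation of 40% to 60%, or above that upper limit; inactive = activation under 40%.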 This is one part of the list.

biological target: Probable G-protein coupled receptor 32 (Homo sapiens) (UniProt O75388); assay: qHTS for Agonists of Human Resolvin D1 Receptor DRV1; conditions: CHO-K1 GPR32 beta-arrestin PathHunter luminescence, 90 min; at 76.9 µM; active compounds read high; zero percent set by DMSO-only wells; note: 0% is about no effect
UniProt O75388, sequence (O75388 whole entry, looked up): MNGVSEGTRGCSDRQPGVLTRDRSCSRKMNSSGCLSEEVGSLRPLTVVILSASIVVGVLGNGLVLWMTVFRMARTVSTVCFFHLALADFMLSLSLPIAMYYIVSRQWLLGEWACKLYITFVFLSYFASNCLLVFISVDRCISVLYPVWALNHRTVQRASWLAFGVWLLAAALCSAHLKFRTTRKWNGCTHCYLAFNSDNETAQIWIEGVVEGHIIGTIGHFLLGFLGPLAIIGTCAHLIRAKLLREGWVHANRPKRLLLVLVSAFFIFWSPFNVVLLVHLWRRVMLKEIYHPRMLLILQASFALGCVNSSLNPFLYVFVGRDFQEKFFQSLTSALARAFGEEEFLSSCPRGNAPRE
Procedure, shortened: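 Engineered CHO-K1 line co-expressing GPR32-ProLink and EA-beta-arrestin. Compound treatment lasted 90 min at 37 °C. Luminescence was recorded after 1 h with substrate at ambient temperature, relative to DMSO basal wells.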

SMILES | activation
C/C=C/C(=O)N(CC)c1ccccc1C | inactive: 0.921%
COc1ccc(S(=O)(=O)NCCc2nnc3ccc(SCC(=O)Nc4ccc(C(F)(F)F)cc4)nn23)cc1 | inactive: -19.1%
Cc1ccc(C)c(N2CCN(C(=O)Cn3ncc4c(=O)oc5ccc(C)cc5c43)CC2)c1 | inactive: -7.12%
Cc1ccccc1Cn1nc(C)c(NC(=O)c2cc(-c3ccc(F)cc3)on2)c1C | inactive: 6.09%
CCOc1ccccc1CNc1ncnc2c1nc1n2CCCC1 | inactive: -8.06%
CSc1ccc(CCNC(=O)CCc2c(C)nc3c(-c4ccccc4)c(C)nn3c2C)cc1 | inactive: -5.29%
CCc1ccc(CSc2nc(-c3ccccc3OC)nc3c2Cc2c(CO)cnc(C)c2O3)cc1 | inactive: 6.63%
CCCn1c(=N)c(C(=O)NCc2cccnc2)cc2c(=O)n3cc(C)ccc3nc21 | inactive: 0.667%
O=C(c1cnc2cc(-c3ccccc3)nn2c1)c1cc([N+](=O)[O-])ccc1O | inactive: 31.2%
COc1cccc(/C=C/c2nc(C#N)c(N3CCCCC3)o2)c1 | inactive: -22.3%
O=C(CN1CCSc2ccccc21)N1CCN(c2ccccc2)CC1 | inactive: -11.1%
CCOC(=O)c1c(NC(=O)/C=C/c2ccc(OC)c(OC)c2)sc(C(C)=O)c1C | inactive: -4.08%
CCn1cc(C2N3CC4(CC)CN2CC(CC)(C3)C4=O)c2ccccc21 (stereo not drawn) | inactive: -21.9%
CNC(=O)[C@H]1O[C@@H](n2cnc3c(NCc4cccc(I)c4)ncnc32)[C@H](O)[C@@H]1O | inactive: -4.12%
CCc1ccc(NC(=O)c2cc(-c3cccs3)on2)cc1 | inactive: -10.5%
COC(=O)c1ccc2c(=O)n(CCCCCC(=O)NCc3ccccc3)c(=O)[nH]c2c1 | inactive: -6.43%
Cc1cccc(-n2c3c(cc(-c4nc(-c5ccc(Cl)cc5)cs4)c2=O)C(=O)CC(C)(C)C3)c1 | inactive: -1.93%
COc1ccccc1CNC(=O)C1CCCN(c2nn3cc(-c4ccc(F)cc4)nc3s2)C1 (stereo not drawn) | inactive: -3.33%
CCOC(=O)c1cnc2cc(C(F)(F)F)ccc2c1N1CCN(c2ccc(F)cc2)CC1 | inactive: -12%
CCOc1ccc(CCNC(=O)CS(=O)Cc2nc(-c3ccc(C)cc3)oc2C)cc1OCC (stereo not drawn) | inactive: -12.4%
CCOC(=O)c1c(C)[nH]c(C)c1S(=O)(=O)N1CCC(C(=O)Nc2ccc(F)cc2F)CC1 | inactive: 14.2%
CCOc1ccccc1NC(=O)Cn1c(=O)n(CCCC(=O)NCCOC)c(=O)c2cc(OC)c(OC)cc21 | inactive: 5.1%
CC(=O)c1ccc(NC(=O)c2ccc3c(c2)N(Cc2cccc(Cl)c2)C(=O)c2ccccc2S3(=O)=O)cc1 | inactive: -35.9%
COC(=O)c1ccccc1NC(=O)CSc1nc(-c2ccccc2)cc(C(F)(F)F)n1 | inactive: -7.04%
Cc1c(C(N)=O)cc([N+](=O)[O-])cc1[N+](=O)[O-] | inactive: -4.79%
Cc1ccc(NC(=O)CN2CCCN(Cc3ccccc3Cl)S2(=O)=O)c(C)c1 | inactive: -7.79%
COc1ccc(CNC(=O)Cn2ccc3cc(S(=O)(=O)N4CCCCC4)ccc32)c(OC)c1 | inactive: -9.84%

SMILES | activation
COc1ccccc1CNC(=O)CCc1c(C)nc2cc(-c3ccccc3OC)nn2c1C | inactive: -0.519%
Cc1cc(Cl)ccc1NC(=O)CN1C(=O)CSc2ccc(S(=O)(=O)N(C)C)cc21 | inactive: 9.46%
CCOCCc1nn2c(=O)cc(COC(=O)COc3ccccc3Cl)nc2s1 | inactive: -12.7%
COC(=O)c1sc2cccc(F)c2c1S(=O)(=O)N1CCN(c2ccccc2OC)CC1 | inactive: -37.2%
COc1ccc(OC)c(NC(=O)CSc2nc(-c3ccccc3C)nc3cc(=O)[nH]n23)c1 | inactive: 17.4%
CC(NC(=O)c1nn(C)c2c1CSc1ccccc1-2)c1ccccc1 (stereo not drawn) | inactive: -14.8%
CC1CCN(C(=O)CN2CCSc3ccccc32)CC1 | inactive: -18.2%
O=C(Nc1ccc(SC(F)F)cc1)c1cc(-c2cccs2)on1 | inactive: 4.28%
O=C(NCCc1ccccc1)c1ccc2c(c1)CCN2S(=O)(=O)c1ccc(Br)cc1 | inactive: -9.68%
CC(=O)c1cccc(NC(=O)CCCN2C(=O)COc3ccc(C)cc32)c1 | inactive: -15.8%
CCOc1ccc(C(=O)Nc2nnc(S(=O)(=O)N(CC)c3ccccc3C)s2)cc1 | inactive: 0.388%
Cc1ccc(-c2cc(NC(=O)C(C)Oc3ccc(C)c(C)c3)on2)cc1 (stereo not drawn) | inactive: -15.2%
O=C(Cc1ccccc1)Nc1c(C(=O)N2CCN(c3ccc(F)cc3)CC2)oc2ccccc12 | inactive: -5.09%
Cc1ccc(C)c(NC(=O)CN2C(=O)CSc3nc(C)cc(C)c32)c1 | inactive: -10.5%
COc1ccc(CNc2ccc3cc(S(=O)(=O)N4CCCCC4)ccc3n2)cc1 | inactive: 5.44%
CCC(=O)N1CCCc2cc(S(=O)(=O)N3CCC(C(=O)Nc4ccc(F)c(F)c4)CC3)ccc21 | inactive: 7.19%
CCNc1nc2c(c(=O)[nH]c(=O)n2C)n1CC(O)COc1ccc(Cl)cc1Cl (stereo not drawn) | inactive: -7.57%
COc1ccc(N2CC(c3nc(-c4cc(OC)c(OC)c(OC)c4)no3)CC2=O)cc1Cl (stereo not drawn) | inactive: -11.3%
COc1cc(OC)cc(C(=O)N2CCC(c3ccncc3)CC2)c1 | inactive: 6.52%
O=C(CCS(=O)(=O)c1cccs1)Nc1ccc(C(=O)Nc2cccc(Cl)c2)cc1 | active: 65.3%
Cc1cc(C)c2c(=O)c3c(oc2c1)C(=O)N(Cc1ccc(F)cc1)C3c1cccc(O)c1 (stereo not drawn) | inactive: -26%
COc1cccc(NC(=O)CN2CCCN(S(=O)(=O)c3ccc(Br)cc3)CC2)c1 | inactive: -7.5%
COc1ccc(Cn2ccnc2SCC(=O)Nc2ccc(C)cc2C)cc1 | inactive: -13%
CC(C)(C)CC(=O)Nc1nnc2n1CCS2 | inactive: 11.9%
Cc1ccc(CNC(=O)CN(c2ccc(C(C)C)cc2)S(=O)(=O)c2c(C)n[nH]c2C)cc1 | active: 83.3%
O=C(NCCSCc1c(F)cccc1Cl)C1CCN(S(=O)(=O)Cc2ccccc2)CC1 | inactive: -4.9%
